Data from ChEMBL document CHEMBL4888484, “Replenishing the malaria drug discovery pipeline: Screening and hit evaluation of the MMV Hit Generation Library 1 (HGL1) against asexual blood stage Plasmodium falciparum ,using a nano luciferase reporter read-out” (2022).
Hit rate of the full screen: of about 150,000 compounds, about 540 (0.36%) showed an effect of 50% or more. The list shows a part of the results.

Tested on: Plasmodium falciparum
Experiment: Primary screen in NF54 nanoGlo assay, in single point, at 2uM, 72h; a lower Z score goes with more inhibition
Assay type: functional, Erythrocyte
Conditions: timepoint 72 hour

Compound | % Inhibition [%] | Z score
Cc1cc(-c2nc([C@H]3CCOC3)no2)cc(C)n1 | -10 | 0.9
Cc1cc(F)ccc1NC(=O)c1nn(-c2ccc(F)cc2)c2ccccc2c1=O | 1 | -0.09
CC(COc1ccc(F)cc1)NC1CCCc2c1cnn2C (stereo unspecified) | -12 | 1.07
COc1ccc(COC(=O)c2cnn(C(C)(C)C)c2)cn1 | -7 | 1.02
Cc1ccc(OCc2cc(C(=O)Nc3ccccc3)oc2C)cc1 | -8 | 0.97
O=C1N[C@H]2CN(C(=O)C3(Cc4cccc(F)c4)CCCCC3)CC[C@@H]2CO1 | -1 | 0.07
CCCc1[nH]nc(-c2cccc(F)c2)c1NC(=O)[C@H](CC)c1ccccc1 | -13 | 1.92
CCOC(=O)c1cnc2cc(C(F)(F)F)ccc2c1N1CCN(c2ccccc2F)CC1 | -1 | 0.09
Cc1ccc(C(=O)N2[C@H](C(=O)NCc3ccco3)COC23CCN(C(=O)c2ccc4c(c2)OCO4)CC3)cc1 | -6 | 0.65
COc1ccc(NC(=O)NC[C@H](C)Oc2ccccc2F)nn1 | 7 | -0.99
O=C(c1ccco1)N(C[C@H]1CN(Cc2ccc(F)cc2)CCO1)C1CCCC1 | -4 | 0.41
NCCn1cc(C(=O)N[C@H]2CCc3c2ccc(Cl)c3Cl)nn1 | -9 | 1.78
O=C([C@@H]1CCC(=O)N1S(=O)(=O)c1ccccc1)N1CCN(c2ccccc2F)CC1 | -19 | 2.54
C[C@@H](C(=O)N1Cc2cnc(-c3ccccc3)nc2C1)n1cnnn1 | 5 | -0.63
COc1ccc(Nc2nc(CN3C(=O)CCC3=O)cs2)cc1F | -4 | 0.69
O=C(NC(c1ccccc1)c1ccccc1)c1cc(-c2ccccc2Cl)nn1-c1cccc(Cl)c1 | 0 | -0.05
COCc1cc(N2CC[C@@]3(CCCN(Cc4ccccc4F)C3=O)C2)ncn1 | 0 | 0
O=C(Nc1ccc(C(F)(F)F)cc1)N1CCN(c2nc(-c3ccccc3)nc3cc(Cl)ccc23)CC1 | -14 | 1.32
Cc1nn(C)c(C)c1-c1ccnc(N2C[C@H]3CC[C@H]2C3)n1 | -9 | 1.07
CCc1nn(C)c(NC(=O)c2cc(C(F)F)[nH]n2)c1CC | -6 | 0.99
Cc1nn(Cn2nc(-c3ccc(F)cc3)c(Br)c2-c2ccc(F)cc2)c(C)c1Cl | 41 | -4.59

Compound | % Inhibition [%] | Z score
O=C1CC[C@H](C(=O)N2CCCCCCC2)CN1CCN1CCOCC1 | 7 | -0.89
Cc1nc2c(C#N)cnn2c(O)c1CC(=O)N[C@H]1CCCc2ccccc21 | -6 | 0.74
CCOc1cc2c(cc1CN1CCN(C)[C@]3(CCC(=O)N(C)CC3)C1)CCC2 | -10 | 1.92
C[C@]1(C(=O)NCC2CCC2)CC1(F)F | 7 | -0.82
O=C(Nc1ccc2[nH]c(=O)[nH]c2c1)c1ccc(S(=O)(=O)N2CCCC2)cc1 | 33 | -3.73
CC1CN(CC(F)(F)c2ccc(F)cc2)CC1N1CCOCC1 (stereo unspecified) | -15 | 3.06
O=C(Nc1cccc(F)c1)N1CCC[C@H](CN2CCCC2)CC1 | 0 | 0
CN(C)c1nccnc1O[C@H]1CCN(S(=O)(=O)Cc2ccccc2)C1 | -12 | 2.02
CCS(=O)(=O)N1C[C@@H]2CN(Cc3cccc(OC)n3)C[C@]2(c2nc(C)no2)C1 | -13 | 1.69
COc1cc(CO[C@H]2CCCN(C(=O)c3ccc(Cl)cc3Cl)C2)cc(OC)c1 | 2 | -0.22
CC1CN(C(=O)c2ccsc2)C(C)CO1 (stereo unspecified) | -6 | 0.93
O=c1[nH]c2cccc(Cl)c2c(=O)n1C1CC1 | 8 | -0.92
CC(C)C[C@@H](NC(=O)Nc1cccc(Cl)c1)C(=O)O | -11 | 1.66
CC(C)CCNC(=O)N1C[C@@H]2CN(C(=O)c3ccncc3)C[C@]2(C(=O)N(C)C)C1 | -4 | 0.47
CCOC(=O)c1cccc(NC(=O)c2ccc(-n3cnc(NC(=O)C(C)C)c3)cc2)c1 | -8 | 0.92
O=C(NCc1cccnc1)c1ccc2c(c1)N(Cc1ccc(F)cc1)C(=O)CO2 | -10 | 1.39
Cn1cc([C@@H]2CN(C(=O)COCc3ccnn3C)CCO2)cn1 | -10 | 1.08
CCc1nncn1CCN[C@H]1CCc2cc(Cl)ccc21 | -4 | 0.51
C1CCc2c(CNC3[C@@H]4CCO[C@@H]4C34CCC4)noc2C1 (stereo partly specified) | -12 | 2.42
O=C(NCc1ccncc1)[C@@H]1CNCCN1C(=O)C1CCCCCC1 | -8 | 1.59
COc1cccc([C@@]2(CC(=O)N3CCN(c4ccccn4)CC3)CC(=O)N(CCN(C)C)C2=O)c1 | -2 | 0.33

Compound | % Inhibition [%] | Z score
COCCN(CC1CCN(Cc2ccccc2F)CC1)C[C@@H]1CC=CCC1 | -2 | 0.25
Cc1cccc(NS(=O)(=O)c2cccc(C(=O)N3CCc4sccc4C3)c2)c1 | 3 | -0.39
Cc1ccnc(-n2ccnc2-c2cccnc2)c1 | -8 | 1.33
CC(C)(C)NC(=O)NCCCc1cnc2ncnn2c1 | -6 | 1.18
C=CCOC[C@@H](O)CN(CCC)Cc1c(-c2ccccc2)noc1N1CCOCC1 | -1 | 0.17
O=C(Cc1ccccc1Cl)N1CCc2cc(-c3ccncc3)ccc21 | 4 | -0.69
COc1cccc([C@@H](O)C(=O)N(C)Cc2cn(C)nc2C(C)C)c1 | -4 | 0.58
CC(C)Oc1ncccc1OCc1nnc2n1CCCCC2 | -16 | 2.04
N[C@@H](c1ccccc1)c1ccc(-c2cccc(S(N)(=O)=O)c2)cc1 | -10 | 1.65
CC[C@]1(C(N)=O)CCCN(c2nc(C)c(C)cc2C(N)=O)C1 | -11 | 1.32
O=S(=O)(c1ccc(Cl)cc1)n1nc(Nc2ccccc2Cl)cc1Nc1ccccc1Cl | -11 | 1.59
OC[C@H](Cc1ccccc1)Nc1nc2ccccc2o1 | 0 | 0.05
CN(C)Cc1cn(C[C@H]2C[C@@H](NC(=O)NC3CCCC3)[C@H](O)[C@@H]2O)nn1 | -4 | 0.68
CC(NC(CO)Cc1c[nH]c2ccccc12)c1ccsc1 (stereo unspecified) | -4 | 0.54
O=S(=O)(CCC1CCCO1)N1CCCC1c1ccc[nH]1 (stereo unspecified) | -11 | 1.42
Cc1cc(C)n2ncc(CN(Cc3nccn3C)C3CC3)c2n1 | -12 | 2.12
Cc1nc(NC(=O)c2cc(N3CCOCC3)ncn2)sc1C(=O)N(C)C | -15 | 2.5
CN(C)C[C@H]1C[C@H](CO)CN(C(=O)c2ccc(Cl)cc2F)C1 | -8 | 1.07
CC(C)Cc1nnc(NC(=O)N[C@@H](C)c2cnn(C)c2)s1 | -15 | 2.82
COc1cccc(Cn2nnnc2C)n1 | 0 | 0.05
CN1CCCN(S(=O)(=O)c2ccc(Cl)cc2)c2ccccc21 | -6 | 0.67

Compound | % Inhibition [%] | Z score
O=C1OC2(CCN([C@H]3CCCOC3)CC2)CN1CCOc1ccccc1 | -1 | 0.09
Cc1ccccc1OCCNC(=O)N1CCC2(CCOCC2)C1 | 30 | -3.36
COc1ccc(-c2cnc(C)o2)cc1S(=O)(=O)Nc1ccc(C(C)C)cc1 | -8 | 1.41
CC(=O)Nc1nc(C(=O)NC2CCCCC2C)cs1 (stereo unspecified) | 1 | -0.17
Cn1cccc1CNC1CCCCCC1 | 8 | -0.9
Cc1ccc(CNC(=O)[C@]2(C)CCC(=O)N2CCCc2ccccc2)cc1 | -16 | 1.5
CC1(C)CN(C(=O)c2csc(-c3cccs3)n2)CCO1 | -2 | 0.34
COc1ccc(-n2ncc3c2NC(=O)C[C@]32C(=O)Nc3ccccc32)cc1 | 0 | -0.07
O[C@H]1CCCN(CCCn2ccnc2-c2ccc3c(c2)CCO3)C1 | -8 | 1
CC(C)c1nc([C@@H]2CCCCCN2Cc2nnn(C(C)(C)C)n2)no1 | -3 | 0.63
CC1(C)CN(c2ccnc(C#N)n2)Cc2cn[nH]c21 | -6 | 0.94
CC(C)Cc1noc(-c2cc3ccccc3c(=O)n2C)n1 | -15 | 2.88
COc1ccc(C(C)C)cc1Cn1cc(CN2CCOC[C@H]2C)nn1 | 5 | -0.83
Cn1cc(-c2c(C#N)c(N)nc3c2COc2ccccc2-3)cn1 | -7 | 1.08
O=C(N[C@H]1CCOC[C@@H]1OCC1CCC1)c1ncn[nH]1 | -2 | 0.26
CCc1ccc(NC(=O)c2sc3nc(C)c(C(=O)Nc4ccc(C)cc4C)c(-c4ccccc4Cl)c3c2N)cc1 | 40 | -2.96
Cc1cnc(C2CCOCC2)n1CC1CN(C(=O)Nc2ccc3c(c2)OCCO3)C1 | -8 | 1.1
CCc1noc(NC(C)=O)c1-c1ccc(OC)c(S(=O)(=O)Nc2ccc(Cl)cc2)c1 | -8 | 1.17
Cc1ccccc1-n1ncc2c1CC(C)(C)C[C@@H]2NC(=O)CCn1cncn1 | -12 | 1.24
CCn1nccc1C(=O)N1CCc2c(c(COc3cnccn3)nn2C)C1 | 2 | -0.26
